PubChem BioAssay (NCI)
“And” between values parts separate entries of the source, which are not always exact repeats. Identical values can stand only once.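 A five-concentration, 48-hour dose response in 96-well plates underlies each endpoint, interpolated linearly between surrounding concentrations. GI50 marks 50% less growth. TGI: concentration producing complete growth inhibition.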 Square brackets hold non-standard residues; d marks the D form. Peptide text beside a SMILES is read from it. pGlu = O=C1CC[CH](C(=O)O)N1

System: NCI-H322M lung
Assay: NCI anticancer screen, dose series, 48 h

| Compound | TGI | GI50 |
| --- | --- | --- |
| COc1ccc(-c2cc3c(c4cc(OC)ccc24)C(=O)OC3=O)cc1 | > 100 µM |  |
| O=C1CSC(=S)N1 | > 100 µM |  |
| O=c1[nH]nnc2c1ncn2C1OC(CO)C(O)C1O (stereo unspecified) | > 100 µM | 11.1 µM |
| Fc1ccc(C2CC(c3cccc(Nc4ccncc4)c3)=NN2c2ccc(Cl)cc2)cc1 (stereo unspecified) | 3.09 µM | 1.6 µM |
| O=C1N=C(SC(SC2=NC(=O)C3(NN2)c2ccccc2-c2ccccc23)=C(SC2=NC(=O)C3(NN2)c2ccccc2-c2ccccc23)SC2=NC(=O)C3(NN2)c2ccccc2-c2ccccc23)NNC12c1ccccc1-c1ccccc12 | > 10 µM |  |
| COc1ccc(/C=N/N=C(\N)NO)cc1O | > 100 µM |  |
| CCCCON(OC(=O)c1ccc2ccccc2c1)C(=O)c1ccccc1 | > 100 µM | > 100 µM |
| CC1=C(C(=O)Nc2cc(=O)n(C)c(=O)n2C)C(c2ccco2)C(C(=O)Nc2cc(=O)n(C)c(=O)n2C)=C(C)N1 | > 100 µM |  |
| CN(C)CCCNC(=O)c1c(O)c2ccccc2[nH]c1=O | > 100 µM |  |
| Cc1ccc(NCC(=O)N2CC(=O)Nc3ccccc32)c(C)c1 | > 100 µM |  |
| O=[N+]([O-])c1c(F)c(F)c2c(c1F)Nc1ccccc1S2 | 13.5 µM |  |
| CCc1cccc(C(C)(C)C)c1NC(=S)N/C=C(/C#N)C(N)=O | > 100 µM |  |
| O=C(O)CN(CC(=O)O)Cc1cc(C#Cc2ccc(C#Cc3ccccc3)cc2)cc(CN(CC(=O)O)CC(=O)O)n1 | > 94.2 µM |  |
| CCNC(=O)C1CCCN1C(=O)C(CCCN=C(N)N)NC(=O)C(CC(C)C)NC(=O)C(CC(C)C)NC(=O)C(Cc1ccc(O)cc1)NC(=O)C(CO)NC(=O)C(Cc1c[nH]c2ccccc12)NC(=O)C(Cc1cnc[nH]1)NC(=O)C1CCC(=O)N1 (stereo unspecified) ([pGlu]HWSYLLRP-NHEt; configuration not given here) | > 100 µM | > 100 µM |
| CCOC(=O)c1nnsc1NC(=O)Nc1ccc(Cc2ccc(NC(=O)Nc3snnc3C(=O)OCC)cc2)cc1 | > 100 µM |  |
| CC1(C)CC(C2=NCCO2)CC(C)(C)N1 | > 100 µM |  |
| CCOc1cccc(/C=N/N=C2\C(=O)Nc3c(Cl)cc(Cl)cc32)c1O | > 100 µM |  |
| CC[C@@]1(O)C(=O)OCc2c1cc1n(c2=O)Cc2c-1nc1ccccc1c2/C=N\NC(=O)C(N)CO (stereo partly specified) | > 100 µM |  |
| COc1c2cc(C(C)(C)C)cc1Cc1cccc(c1OCc1cccc([N+](=O)[O-])c1)Cc1cc(C(C)(C)C)cc(c1OC)Cc1cccc(c1OCc1cccc([N+](=O)[O-])c1)Cc1cc(C(C)(C)C)cc(c1OC)Cc1cccc(c1OCc1cccc([N+](=O)[O-])c1)C2 | > 50 µM |  |
| Cc1cc(CC(=O)NCCO)n(CCO)c(=O)c1 | > 100 µM |  |
| C/C(=N\NC(=S)N1CC2CCC(CC2)C1)c1nccs1 | 14.3 µM |  |
| CCN(C(=O)N[C@@H](Cc1ccccc1)C(=O)N[C@@H](CC(C)C)C(=O)OC)c1ccccc1 | > 100 µM |  |
| O=C1CC(O)CC(=O)C1=C(O)CCCCCCCCCCc1ccccc1 (stereo unspecified) | > 100 µM |  |

| Compound | TGI | GI50 |
| --- | --- | --- |
| CC(=O)C1(Cc2cccc3ccccc23)S(=O)(=O)OCCOS1(=O)=O | 43.4 µM |  |
| N#Cc1ccc(OCc2nc(N)nc(N)c2-c2ccc(Cl)c(Cl)c2)cc1 | > 100 µM | 1.47 µM |
| Cc1ccc2nc3c(=O)[nH]c(=O)nc-3n(C)c2c1C | > 100 µM |  |
| O=[N+]([O-])c1ccc(C[P+](c2ccccc2)(c2ccccc2)c2ccccc2)cc1 | > 100 µM |  |
| O=C(CCCCCCNC(=O)c1cnc(N(c2ccccc2)c2ccccc2)nc1)NO | > 78.8 µM | 3.15 µM |
| O=C1/C(=c2\s/c(=C\c3ccccc3)c(=O)n2-c2ccccc2)SC(=S)N1c1ccccc1 | > 100 µM |  |
| CC(=O)c1ccc2c(c1)c1c(C)c3c[n+](C)ccc3c(C)c1n2C | 77.3 µM |  |
| COc1cc(/C=C\c2cc(OC)c(OC)c(OC)c2)cc(NC(=O)/C=C/c2cc(OC)c(OC)c(OC)c2)c1OC | > 100 µM | > 100 µM |
| O=NN1C(c2ccccc2)CC(=NO)CC1c1ccccc1 (stereo unspecified) | > 100 µM |  |
| O.O.[NH-]C1(C(=O)O)CCCC1.[NH-]C1(C(=O)O)CCCC1.[Ni+2] | > 100 µM |  |
| N=C1C(c2nc3ccccc3s2)=C(O)CN1c1ccc(F)c(Cl)c1 | > 100 µM | 25.6 µM |
| COc1ccc(C23C(=O)c4ccccc4N2O[C@H]2C(=O)N(c4ccccc4)C(=O)[C@H]23)cc1 (stereo partly specified) | > 100 µM |  |
| CC(CC[C@@H](O)C(C)(C)O)C1[C@@H](O)CC2(C)C3CC(O)C4C(C)(C)[C@@H](OC5OC(CO)C(O)C(O)C5O)CC[C@@]45C[C@@]35CC[C@]12C (stereo partly specified) | > 10 µM |  |
| CC[C@@H]1c2c(C#N)ncn2-c2cnc(Nc3ccc(C(=O)NC4CCN(C5CCN(CC6CC6)CC5)CC4)cc3OC)nc2N1C1CCCC1 | 2.17 µM | 0.872 µM |
| O=C1NC2=C(CCCC/C2=N\O)C12CCCCC2 | > 100 µM |  |
| CCN1C(=O)N(CC)C2C1NN=c1s/c(=C\c3cccc(F)c3)c(=O)n12 (stereo unspecified) | > 100 µM | 3.27 µM |
| O=C(O)C1=C(O)C(C(=O)O)C23CCCCCCCCCCC12C(C(=O)O)C(O)=C3C(=O)O (stereo unspecified) | > 100 µM |  |
| Cc1c[n+](=O)c2ccccc2n1[O-] | > 100 µM |  |
| CCCCCC(C/C=N/N(C)C)C(O)(C(F)(F)F)C(F)(F)F (stereo unspecified) | > 100 µM |  |
| CC(=O)OC/C=C/[C@H](O[Si](C)(C)C(C)(C)C)[C@@H](O)/C=C/COC(C)=O | > 100 µM |  |
| C=C(CN1C(=O)CN(C)C1=O)c1ccc(C(=O)Nc2ccccc2N)cc1 | 64 µM | 12.2 µM |
| O=C(O)CCC(=O)N1c2ccccc2CC1c1c[nH]c2ccccc12 (stereo unspecified) | > 100 µM |  |
| COC(=O)[C@H](Cc1ccccc1)NP(=O)(OCCC#N)OCC1OC(n2cc(C)c(=O)[nH]c2=O)CC1N=[N+]=[N-] (stereo partly specified) | > 100 µM |  |

| Compound | TGI | GI50 |
| --- | --- | --- |
| Cc1c2ccncc2c(C)c2c1[nH]c1ccc(OC(C)C)cc12 | 2.82 µM |  |
| CC1(C)C2C=C(CCN3CCOCC3)CC1C2 (stereo unspecified) | > 100 µM |  |
| CCOC(=O)/C(C=Nc1ccc(-c2nc3ccccc3[nH]2)cc1)=C(/C)O | > 50 µM | 15.4 µM |
| CC(C)=CC1C[C@H](C2CC=C3C2(C)CCC2[C@@]3(C)C(=O)CC3[C@]2(C)C=CC(=O)[C@]3(C)CO)CO1 (stereo partly specified) | 47.6 µM |  |
| COc1ccc2nc3cc(Cl)ccc3c(NCCNC(=O)Cn3c(=O)n(C)c(=O)c4c3nc3c(c(=O)n(C)c(=O)n3C)[n+]4[O-])c2c1 | > 100 µM |  |
| COc1cc(Br)c(C=Nc2cccc3cc(OC)c(OC)cc23)cc1OC | > 100 µM |  |
| CCc1ccccc1NC(=O)C1=C(C)NC(C)=C(C(=O)Nc2ccccc2CC)C1c1ccccc1Cl | > 100 µM |  |
| CN1CCN(C(=S)N(C(=O)c2ccc(Cl)cc2)c2ccccc2)CC1 | > 100 µM |  |
| C[C@@]1(C(=O)O)CCC[C@]2(C)C1CC[C@@]13CC(=O)[C@@](CO)(CC[C@]12O)C3 (stereo partly specified) | > 100 µM | 85.3 µM |
| Oc1c(-c2nnc(-c3ccccc3Cl)o2)sc2nnc(-c3ccccc3)c(-c3ccccc3)c12 | 28 µM | 3.34 µM |
| Brc1ccc(C2CC(c3cccc4ccccc34)=Nc3ccccc3S2)cc1 (stereo unspecified) | > 100 µM |  |
| COC1=C(N)C(=O)c2nc(C)ccc2C1=O | 11.6 µM |  |
| C[C@]12CC[C@@H]3c4ccc(OC(=O)N(CCCl)CCCl)cc4CC[C@H]3[C@@H]1CC[C@@H]2O | 32 µM and 9.7 µM | 4.4 µM |
| O=C1C(N2CCN(c3ccccn3)CC2)=C(Cl)C(=O)c2ncccc21 | > 10 µM |  |
| CN1CCc2c3n(c4cc(Br)ccc24)[C@H](O)CCCC31 (stereo partly specified) | > 10 µM |  |
| CCOC(=O)C12CCCC1(O)N(NC(=O)OC(C)(C)C)C(C)=C2C(=O)OC (stereo unspecified) | > 100 µM |  |
| O=c1[nH]nc(-c2ccccc2)n1Nc1ccccc1 | > 100 µM |  |
| O=c1cc(-c2ccccc2)[nH]c2ccc(N3CCOCC3)cc12 | > 100 µM |  |
| O=C(Nc1ccc([As](=O)(O)O)cc1)Nc1cccc(Cl)c1Cl | > 100 µM |  |
| CN(/N=C/c1cccc2cccnc12)c1ccc([N+](=O)[O-])cc1[N+](=O)[O-] | > 100 µM |  |
| CCc1cc2c(c3c1CCC3=O)CC1(Cc3ccc(C)cc3C1)C2 (stereo unspecified) | > 100 µM |  |
| O=C(Oc1cccc(F)c1OC(=O)c1cccc(O)c1)c1cccc(O)c1 | > 100 µM | 53.7 µM |
| O=C1N(C2CCCCC2)CC12CCCCC2 | > 100 µM |  |

| Compound | TGI | GI50 |
| --- | --- | --- |
| Fc1ccc(Oc2nc3ccc(C(F)(F)F)cc3nc2-c2ccccc2)cc1 | > 100 µM |  |
| CCOC(=O)c1cc(=O)c2ccnc3c2n1CCS3 | > 100 µM |  |
| CC12O[C@]3([C@H](C(=O)N4CCOC43C)[C@H]1Cl)[C@H]1O[C@H]12 (stereo partly specified) | > 100 µM |  |
| CC(Cc1ccccc1)Nc1ncnc2c1ncn2C1OC(CO)CC1O (stereo unspecified) | > 100 µM |  |
| CCN(CC)CCNc1ccc2nnn3c4ccc(C)cc4c(=O)c1c23 | 21.3 µM |  |
| Cc1c(C)c(C)c(-n2c(=O)n(C)c(=O)n2-n2c(=O)n(C)c(=O)n2-c2c(C)c(C)c(C)c(C)c2C)c(C)c1C | > 100 µM |  |
| COc1ncnc2c(-c3ccccc3)cn(COCc3ccccc3)c12 | > 100 µM | 11.3 µM |
| c1ccc(-c2nnc(-c3ccccn3)c3c2C[C@@H]2C[C@@H]4Cc5c(-c6ccccn6)nnc(-c6ccccn6)c5[C@@H]4[C@H]32)nc1 | > 100 µM |  |
| COC(=O)NC(=O)c1cn(C2OC(CO)C(O)C2O)c(=O)[nH]c1=O (stereo unspecified) | > 100 µM |  |
| NC(=O)Nc1ccc(S(=O)(=O)Nc2ccc(S(N)(=O)=O)cc2)cc1 | > 100 µM |  |
| C/C(=C(/C)c1ccc(O)cc1)c1ccc(O)cc1 | > 100 µM |  |
| CC1OC(OC2C(O)COC(OC3C(C)OC(OC4C(OC(=O)[C@]56CCC(C)(C)C[C@@H]5C5=CCC7[C@@]8(C)C[C@H](O)[C@H](OC9OC(CO)C(O)C(OC%10OC(CO)C(O)C(O)C%10O)C9O)[C@@](C)(CO)[C@@H]8CC[C@@]7(C)[C@]5(C)CC6)OCC(O)C4O)C(O)C3OC3OCC(O)(CO)C3O)C2O)C(O)C(O)C1O (stereo partly specified) | 13.7 µM |  |
| O=c1cc(-c2ccccc2)c2ccccc2[nH]1 | > 100 µM |  |
| C=C[C@@]1(C)CC[C@@H]2[C@@]3(C1)O[C@H]3CC1[C@](C)(C(=O)OC)CCC[C@@]12C (stereo partly specified) | 32.1 µM |  |
| O/N=C1/C(=C/c2ccc3c(c2)OCO3)CCCC1C(NO)c1ccc2c(c1)OCO2 (stereo unspecified) | 53.3 µM |  |
| COc1ccc(CCCCl)c(C2=NCCc3cc(OC)c(OC)cc32)c1 | > 100 µM |  |
| NS(=O)(=O)c1ccc(-n2nc(-c3ccc(Cl)cc3)cc2-c2cc(O)ccc2O)cc1 | 31.7 µM | 14.3 µM |
| CC1(C)C2CCC13C(=O)C1OC3(C2)C2C(=O)c3cc4ccccc4cc3C(=O)C12 (stereo unspecified) | 84.2 µM | 8.25 µM |
| O=C(NNC(=S)Nc1ccccc1)c1cc(-c2ccccc2)nc2ccccc12 | 69.6 µM |  |
| CC(=O)N1C(OC(C)C)CC(C)N1c1ccccc1 (stereo unspecified) | > 10 µM |  |
| CNC(=O)Nc1nc2ccc([N+](=O)[O-])cc2[nH]1 | > 100 µM |  |
| O=C(O)c1n[nH][nH]c1=S | > 100 µM |  |
| Cc1cc(-c2cccc3ccccc23)c(C#N)c(=S)n1C1OC(CO)C(O)C(O)C1O (stereo unspecified) | > 100 µM |  |
